Experimental data taken from patent US8999921B2, “Process for diagnosing rheumatic diseases” (Cypress Bioscience, Inc., priority 2005, dated 2015).

Test system: autoantibodies to mutated vimentin
Assay: Indirect enzyme immunoassay (ELISA) with mutated vimentin as detection antigen
Assay type: binding, human
Details: diluted 1:100
Method: A recombinant, mutated variant of native vimentin of Example 1 (SEQ 9) was expressed in E. coli and purified by means of affinity chromatography using the His-tag. A 2 mg/ml solution of the purified protein was pretreated with unfolding buffer (50 mM Tris, 2 M guanidine hydrochloride, 5 mM CaCl2, 2 mM DTT, 0.5 mM EDTA, 5 mM methylammonium chloride, pH 7.4), and for at least 14 hours at 4° C., and subsequently diluted 1:1000 in PBS. 100 μl of this solution were introduced to the cavities of a microtiter plate (manufacturer: COSTAR) at 4° C. overnight. Unbound polypeptide was removed by washing three times (175 μl, buffer PBS/0.05% TWEEN). Potentially unspecific crossreactions were blocked by incubating the cavities with 150 μl of a 3% bovine serum albumin (BSA) solution in PBS. The blocked, emptied plate was dried at 37° C. for 30 min and stored at 4′ under desiccating conditions.
Microtiter plates prepared in this way were employed in quantitative detection of autoantibodies to mutated vimentin according to the principle of the indirect enzyme immunoassay. Detection of autoantibodies to CCP (citrullinated peptide) was carried out for comparison. For this purpose, samples of sera of healthy volunteers and/or patients having different diseases were diluted 1:100 with 1% BSA/PBS and incubated in the cavities for 30 minutes. Unbound serum antibodies are removed by repeatedly washing with PBS/0.05% TWEEN. Subsequently, enzyme-labeled detection antibodies (in particular peroxidase-conjugated anti-human IgG antibodies, 1:10 000 dilution) were incubated for 15 minutes.
After washing off the excess detection antibody, 100 μl of a substrate solution (TMB (3,3′,5,5′-tetramethylbenzidine) tablet, dissolved in 10 ml of 0.05 M phosphate-citrate buffer, with 8 ml of hydrogen peroxide being added shortly before use) were added for 15 minutes. Addition of 100 μl of 1 M HCl stopped the reaction, with the reaction product turning yellow. The intensity of the yellow stain was determined photometrically at 450 nm, with absorption being directly proportional to the autoantibody concentration searched for.

B1: Mutated vimentin: recombinant, mutated variant of native vimentin (SEQ 9) expressed in E. coli, His-tag purified (protein)
chain: MSTRSVSSSSYRRMFRGTGTASRTSSSRSYVTTSTRTYSLRSALRTSTSRSLYYSSPGRVYATRSSYVRLRSSVTRVSLLQDSVDFSLADAINTEFKNTRTNEKVELQELNDRFANYIDKVRFLEQQNKILLAELEQLKGQGKSRLGDLYEEEMRELRRQVDQLTNDKARVEVERDNLAEDIMRLREKLQEEMLQREEAENTLQSFRQDVDNASLARLDLERKVESLQEEIAFLKKLHEEEIQELQAQIQEQHVQIDVDVSKPDLTAALRDVRQQYESVAAKNLQEAEEWYKSKFADLSEAANRNNDALRQAKQESTEYRRQVQSLTCEVDALKGTNESLERQMREMEENFAVEAANYQDTIGRLQDEIQNMKEEMARHLREYQDLLNVKMALDIEIATYRKLLEGEESRISLPLPNFSSLNLRETNLDSLPLVDTHSKRTLLIKTVETRDGQVINETSQHHDDLE
modifications: His-tag
Mutated vimentin OD at 450 nm (serum number 1, Normal serum): 0.127 | Mutated vimentin OD at 450 nm (serum number 2, Blood donor): 0.089 | Mutated vimentin OD at 450 nm (serum number 3, Hepatitis): 0.107 | Mutated vimentin OD at 450 nm (serum number 4, Borrelia arthritis): 0.167 | Mutated vimentin OD at 450 nm (serum number 5, Rheumatoid arthritis): 0.784 | Mutated vimentin OD at 450 nm (serum number 6, Rheumatoid arthritis): 0.984 | Mutated vimentin OD at 450 nm (serum number 7, Rheumatoid arthritis): 2.456 | Mutated vimentin OD at 450 nm (serum number 8, Rheumatoid arthritis): 1.709 | Mutated vimentin OD at 450 nm (serum number 9, Rheumatoid arthritis): 1.342
